About 830 (1.9%) of roughly 43,000 compounds were called active. This list was built around the results that the source calls inconclusive (neither active nor inactive); the mix of calls is not that of the screen. Rule for the calls: active = clear falling dose curves in both reporters; inconclusive = both reporters move, but less clearly or upward; inactive = either reporter flat; the % is the NLuc reporter signal. No potency is given beside an inconclusive call; the fits are too rough.
Test: Cell-based coincidence reporter assay to measure PMP22 gene transcription in S16 Pmp22-F2sN cells - Primary screen
Conditions: S16 Pmp22-F2sN Schwann cells (luciferase reporters placed in the Pmp22 gene), FLuc/NLuc coincidence luminescence, 24 h; measured here: NLuc reporter readout, at 57.5 µM (top of the series)
How it was run: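 Reporter cells (S16 Pmp22-F2sN, 500–1,000 per well) exposed to compounds for 24 h, 37C, 5% CO2; lysis with FLuc read after 10 min, then Stop&Glo and NLuc read after 10 min.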
Potency is the fitted concentration of half-maximal effect; tags give direction and shape of the fitted curve.

Row | SMILES | Potency
1 | CCOC(=O)c1ccc(CN(Cc2ccc(C)cc2)S(=O)(=O)c2ccc(NC(C)=O)cc2)cc1 | inconclusive [phenotype inactive, partial curve, poor fit]
2 | COc1ccc(C)cc1NC(=O)Cn1c(=O)oc2cc(S(=O)(=O)NCc3ccccc3)ccc21 | inactive
3 | COc1ccc(OC)c(CNc2sc3c(c2C(=O)Nc2cc(OC)ccc2OC)CCCC3)c1 | inconclusive [phenotype inactive, single point]
4 | Cc1cccc(OCCCn2c(CCNC(=O)C(C)(C)C)nc3ccccc32)c1 | inconclusive [phenotype inactive, single point]
5 | Cc1cccc(NC(=O)Cn2c(=O)oc3cc(S(=O)(=O)NC4CCCC4)ccc32)c1 | inactive
6 | Cc1cc(Nc2ccc(F)cc2)nc(-n2nc(C)cc2C)n1 | inconclusive [phenotype inactive, partial curve]
7 | Cc1ccc(C(=O)Nc2ccc3nc(N4CCCCC4)cc(C)c3c2)cc1F | inconclusive [phenotype inactive, single point]
8 | COc1ccccc1N1CCN(CC(O)COc2ccc(C)cc2C(C)(C)C)CC1 (stereo unspecified) | inconclusive [phenotype inactive, single point]
9 | COc1ccc(NC(=O)Cn2c(=O)n(-c3ccc(C)c(C)c3)c(=O)c3c(C)c(C)sc32)cc1 | inconclusive [phenotype inactive, single point]
10 | O=C(CCCCn1c(=O)c2ccccc2n(CC(=O)Nc2cccc(F)c2)c1=O)NCCc1ccccc1 | inconclusive [phenotype inactive, partial curve, poor fit]
11 | COc1ccc(Cl)cc1NC(=O)CSC1=Nc2ccccc2C2=NC(CC(=O)NCc3cccs3)C(=O)N12 (stereo unspecified) | inconclusive [phenotype inactive, single point]
12 | CCN(c1cccc(C)c1)c1ncnc2c1cnn2-c1cccc(Cl)c1 | inconclusive [phenotype inactive, single point]
13 | CC1=C(c2ccc(C)c(C)c2)S(=O)(=O)N=C1N1CCC(C(=O)NC(C)Cc2ccco2)CC1 (stereo unspecified) | inactive
14 | CCOCCCn1c(=N)c(C(=O)NCC2CCCO2)cc2c(=O)n3cccc(C)c3nc21 (stereo unspecified) | active: 16.3 µM
15 | Cc1ccc(-n2c(SCC(N)=O)nc3c(oc4ccccc43)c2=O)cc1C | inconclusive [phenotype inactive, single point]
16 | O=C(Cn1c(=O)oc2cc(S(=O)(=O)NCc3ccccc3)ccc21)NCc1ccc(Cl)cc1 | inconclusive [phenotype inactive, single point]
17 | COc1ccccc1NC(=O)C1=C(C)Nc2nc(SCc3ccccc3F)nn2C1c1cccs1 (stereo unspecified) | inconclusive [phenotype inactive, single point]
18 | O=C(Nc1ccc2nc(SCC(=O)N3CCCc4ccccc43)sc2c1)c1ccccc1 | inconclusive [phenotype inactive, single point]

Row | SMILES | Potency
19 | Cc1ccc(N2CCN(S(=O)(=O)c3ccc(F)c(C(=O)Nc4ccc(Cl)cc4Cl)c3)CC2C)cc1 (stereo unspecified) | inconclusive [phenotype inactive, single point]
20 | CCOc1ccc(S(=O)(=O)Nc2nc3ccccc3nc2Nc2ccc(OC)cc2)cc1 | inactive
21 | C=Cc1ccc(CSc2nc(-c3ccc(C)cc3)nc3c2Cc2c(CO)cnc(C)c2O3)cc1 | inconclusive [phenotype inactive, partial curve, poor fit]
22 | CCc1ccc(CNCc2c(C(=O)O)n(Cc3ccc(F)cc3Cl)c3cc(OC)ccc23)cc1 | inconclusive [phenotype inactive, partial curve, poor fit]
23 | COc1ccc2ncc3c(-c4ccc(C)c(C)c4)nn(CC(=O)NC4CCCC4)c3c2c1 | inconclusive [phenotype inactive, partial curve, poor fit]
24 | O=C(Nc1cccc(Cl)c1)c1ccc(F)c(S(=O)(=O)N2CCC3(CC2)OCCO3)c1 | inactive
25 | COc1ccccc1-n1c(-c2ccc(C)cc2)cn2c3c(=O)n(C)c(=O)n(C)c3nc12 | inconclusive [phenotype inactive, partial curve]
26 | CCc1nn(CC(=O)NCc2ccccc2Cl)c(=O)c2cccn12 | inactive
27 | N#Cc1cccc(NC(=O)c2cc3c(s2)-c2ccc(Cl)cc2SC3)c1 | inconclusive [phenotype inactive, single point]
28 | CCOc1ccccc1CNC(=O)c1cccn1-c1nnc(N2CCCCC2)s1 | inconclusive [phenotype inactive, single point]
29 | CCOc1ccc(N(C)C(CNS(=O)(=O)c2ccccc2)c2ccccc2)cc1 (stereo unspecified) | inconclusive [phenotype inactive, partial curve, poor fit]
30 | COC(=O)CCNC(=O)N1CCN(c2nnc(C)c3c(C)n(-c4ccc(Cl)cc4)nc23)CC1 | inactive
31 | Cc1ccc(-c2noc(CN(C(=O)COc3cc(C)cc(C)c3C)C(C)C)n2)cc1 | inconclusive [phenotype inactive, single point]
32 | CC(C)NC(=O)C1CCN(C(=O)c2cc3sccc3n2Cc2ccc(Cl)cc2)CC1 | active: 9.46 µM
33 | Cc1ccccc1CNC(=O)C(=O)NCC(c1ccco1)S(=O)(=O)c1ccc(F)cc1 (stereo unspecified) | inconclusive [phenotype inactive, single point]
34 | NC(=O)CSc1ncc2c(n1)-c1ccccc1N(Cc1ccccc1)S2(=O)=O | inconclusive [phenotype inactive, single point]
35 | Cc1ccc2c(CNCc3cccs3)c(C(=O)O)n(Cc3ccc(F)cc3)c2c1 | inconclusive [phenotype inactive, single point]
36 | Cc1ccc(Nc2cc(C(=O)NC3CCCC3)c3ccccc3n2)cc1C | active: 2.82 µM
